Hit rate of the full screen: of about 150,000 compounds, about 540 (0.36%) showed an effect of 50% or more. The list shows a part of the results.

The assay relates to Plasmodium falciparum. Nature of the assay: Primary screen in NF54 nanoGlo assay, in single point, at 2uM, 72h; a lower Z score goes with more inhibition. The note with it: timepoint 72 hour. It is filed as functional, Erythrocyte.
In the case of `O=C(CC1C=CCC1)NC1CC(C(=O)O)c2ccccc21` (stereo not drawn), the % Inhibition (in general, the drop in the measured response relative to a control, in per cent) was 1% and the Z score was -0.16.
For `CCOc1ccc(CN(C)C[C@H]2CCOC2)cn1`, in that order: -13% and 1.84.
On the same counts, the results for `Cc1ccc(CCN2C(=O)CC[C@@H]3CN(C(=O)c4ccc[nH]4)CC[C@@H]32)o1` are -6% and 0.99.
As for `Cc1cnc(C2CCN(C(=O)c3cc4ccccc4[nH]3)CC2)n1CCO`, the “% Inhibition” value was determined as 0% and the Z score was found to be 0.05.
As for `CCn1ncc2c1CCCC2NC(C)C(=O)NCCCOC` (stereo not drawn), the “% Inhibition” value was 5% and the Z score is -0.89.
For `Cc1nnc2sc(-c3ccc(NC(=O)c4sc5ccccc5c4Cl)cc3)nn12`, in that order: -4% and 0.56.
For `CCN(CC)c1n[nH]c(NCc2ccoc2C)c1C#N`, in that order: -7% and 1.11.
On the same counts, the results for `Cc1ccc(F)c(N2CCC(NC(=O)CC3OCCCO3)CC2)c1` are -4% and 0.54.
On to `Cc1ccc2sc(N(Cc3ccccc3)C(=O)CN3CCOCC3)nc2c1C`, for which the “% Inhibition” value was -15% and the Z score came to 2.75.
On the same counts, the results for `CCCc1cc(C(=O)NCc2cccnc2N2CCN(C)CC2)ccn1` are 3% and -0.33.
On the same counts, the results for `COc1ccc(C[C@H](N)C(=O)Nc2ccccc2CN2CCCCC2)cc1` are -4% and 0.62.
As to `Cc1ccc(-c2noc(CCN(C(=O)c3ccco3)C3CCCCC3)n2)cc1Cl`, the “% Inhibition” value is recorded as -9% and the Z score amounted to 1.11.
For `Cc1ccc2[nH]c(-c3nc(CCN(C)C(=O)C4CCC4)no3)cc2c1`, in that order: -14% and 2.61.
For `NC(=O)COc1cccc([C@H]2CC(O)=Nc3c2ncn3-c2ccc(Cl)cc2)c1`, in that order: 31% and -3.53.
On the same counts, the results for `NC(=O)NCC(=O)N1CCN(c2c(F)c(F)c(F)c(F)c2F)CC1` are -4% and 0.53.
Turning to `CN1C[C@@H]2CC[C@H]1CN(C(=O)CCCOc1ccccc1)C2`, the “% Inhibition” value is recorded as -11% and the Z score was determined as 1.74.
For `Cc1ccc(Oc2nc(N3CCC(C)CC3)nc3c2CN(Cc2sccc2C)CC3)cc1`, in that order: -3% and 0.6.
For `Cc1nc(N2C[C@@H](C)N(CCO)[C@@H](C)C2)ccc1C#N`, in that order: -1% and 0.11.
With `Cc1ncsc1CN1CC[C@H](CO)[C@H](NC(=O)c2cccnc2)C1`, the “% Inhibition” value is -5% and the Z score is 0.7.
For `O=C(c1ccc(=O)[nH]n1)N1CC[C@H](Oc2ccncn2)C1`, in that order: -8% and 1.3.
For `Cc1ccc(-n2nc(CC(C)C)nc2-c2ccnnc2)cc1C`, in that order: -9% and 1.63.
For `CC[C@H](NC(=O)NCCc1cn2c(n1)CCCC2)c1nc(C)cs1`, in that order: -8% and 1.08.
As for `Cc1ccc2c(c1)[C@@H](NC(=O)c1oc(CC(C)C)nc1C)CO2`, the “% Inhibition” value was 1% and the Z score was -0.11.
For `CCC(CC)(CCO)CNC(=O)NC1CC1`, the “% Inhibition” value is on record as -9% and the Z score is listed as 1.2.
On the same counts, the results for `CCOC(=O)C1CN(S(=O)(=O)c2ccccc2)C1` are 36% and -4.59.
On the same counts, the results for `CCN(CC)CCNc1cccc(C(F)(F)F)c1` are -1% and 0.15.
For `O=C(Cc1ccc2c(c1)OCO2)N1CCN(c2nccs2)C(=O)C1`, in that order: 22% and -2.74.
Regarding `CC(=O)NCc1nccc(N2CCCCC2)n1`, the “% Inhibition” value is recorded as -6% and the Z score is 0.89.
For `CO[C@@]12CC[C@@H](NC(=O)CC(C)C)C[C@@H]1N(C(=O)Cc1cccs1)CC2`, in that order: -3% and 0.42.
For `CCN(CC)c1onc(-c2ccccc2)c1CN(CC1CC1)C[C@H](O)COc1ccccc1`, in that order: -3% and 0.42.
For `Cc1ccccc1OCC(=O)N1C2CCC1CC(=C1CC1)C2`, in that order: 9% and -1.13.
Take `Cc1ccccc1OC[C@@H](O)Cn1nnc2ccccc21`: the “% Inhibition” value is reported as -18% and the Z score amounted to 1.61.
For `CCC(C)C(=O)Nc1c(C(=O)OC)n(CC2CCCO2)c2ncc(NCc3cccc(F)c3F)cc12` (stereo not drawn), in that order: -10% and 1.11.
On the same counts, the results for `CN(C)[C@H]1CCCN(Cc2ccc3c4c(cccc24)C(=O)OC3)CC1` are -5% and 1.02.
On the same counts, the results for `CC(C)(C)c1cc(CN2CCC3(CC2)[C@H](O)C[C@@H]3O)n[nH]1` are -1% and 0.15.
With `CN1C(=O)[C@@H]2CC[C@H]1CN(CCCC(=O)c1ccc(F)cc1)C2`, the “% Inhibition” value was -5% and the Z score was found to be 0.75.
In the case of `Cc1nc(CCN(C)C(=O)c2cc(N)ccn2)no1`, the “% Inhibition” value was -9% and the Z score amounted to 1.08.
For the molecule `Cc1ncccc1C(=O)N1CCC2(CC1)CC(=O)N(CC(C)C)C2`, the “% Inhibition” value was -12% and the Z score is listed as 1.24.
On the same counts, the results for `O=C(CCc1ccccc1)N1CCC2(CC1)N(CC1CC1)C(=O)C[S@+]2[O-]` are -8% and 1.48.
For `COc1ccc(CNC(=O)[C@@H]2CCN(c3ccc(Cl)cc3)C2=O)cc1OC`, in that order: -1% and 0.14.
As to `C[C@@H](C(=O)NC(=O)NC1CCCCC1)N(C)Cc1ccc(F)cc1F`, the “% Inhibition” value is listed as -5% and the Z score turned out to be 0.48.
On the same counts, the results for `CN(CC1CN(c2ccccc2)C(=O)O1)CC1CN(C2CC2)C(=O)O1` (stereo not drawn) are -1% and 0.19.
For `Fc1cnc(NCC2(n3cccn3)CC2)nc1`, in that order: -10% and 1.47.
On the same counts, the results for `CC1CN(Cn2ncnc2-c2ccccc2Cl)CC(C)O1` (stereo not drawn) are 3% and -0.45.
`Cc1ccccc1OCC(=O)N1CCC[C@H](COCc2ccccc2)C1`: the “% Inhibition” value is given as -6% and the Z score is 1.2.
Take `CCC(=O)N1CCC[C@H](c2[nH]ncc2-c2ccccc2F)C1`: the “% Inhibition” value was -7% and the Z score stood at 1.37.
For `Cc1ccc(NC(=O)[C@@H]2CNC[C@H](C(=O)NCc3sccc3C)C2)cn1`, in that order: 2% and -0.3.
For `COC1(C)CC(Nc2ncnc3nc[nH]c23)C1(C)C` (stereo not drawn), in that order: -13% and 1.91.
For `COc1cc(-c2cc(C(=O)Nc3cc(S(=O)(=O)Nc4ccc(Cl)cc4)ccc3N3CCCC3)c3ccccc3n2)cc(OC)c1OC`, in that order: -7% and 1.32.
`Cc1nnc(CN(C)C(=O)Nc2ccnn2CC2CCCCC2)o1`: the “% Inhibition” value is on record as 2% and the Z score is reported as -0.3.
On the same counts, the results for `O=C(NCCc1ccccc1)c1cn2c(n1)[C@@H](c1ccccc1)N(CC1CCCCC1)CC2` are -8% and 1.17.
On the same counts, the results for `Fc1ccc(COc2cccn3cc(-c4ccc(Cl)cc4)nc23)cc1` are 0% and 0.02.
On to `Cc1noc(C)c1CC(=O)N1CC[C@H](OCc2ccccc2)C1`, for which the “% Inhibition” value is on record as 3% and the Z score is reported as -0.53.
For the molecule `O=c1c2c(F)cccc2ncn1C1CCS(=O)(=O)CC1`, the “% Inhibition” value is -23% and the Z score was found to be 2.21.
On the same counts, the results for `O=C(Cc1cccs1)N1CCCN(c2nnc3ccccn23)CC1` are -5% and 0.52.
`O=C1[C@@H](N2CCS(=O)(=O)CC2)CCN1c1ccc(F)c(Cl)c1`: the “% Inhibition” value was -17% and the Z score is listed as 2.33.
Turning to `O=C(CNC(=O)c1ccccc1Br)Nc1ccc(N2CCCCC2)cc1`, the “% Inhibition” value is listed as -12% and the Z score was found to be 1.38.
For `CCN(CC)C(=O)c1cnc2nc(C)ccc2c1Nc1ccc(F)cc1F`, in that order: -2% and 0.4.
For `CO[C@@H]1CCCCC[C@@H]1S(=O)(=O)NCC(C)c1nccs1` (stereo partly drawn), in that order: -1% and 0.12.
As to `CC(C)(C)C(=O)NCCc1nc(N)cc(O)n1`, the “% Inhibition” value is listed as 1% and the Z score was -0.12.
`CCCc1nnc(NC(=O)NC[C@](C)(O)c2ccc(C)o2)s1`: the “% Inhibition” value is reported as -8% and the Z score was determined as 1.52.
On to `CC(C)n1nccc1S(=O)(=O)N[C@H]1COC[C@@H]1N1CCCC1`, for which the “% Inhibition” value is given as 3% and the Z score was -0.53.
On the same counts, the results for `CC(=O)N[C@@H]1CN(Cc2cccnc2C(F)(F)F)C[C@H]1c1nccn1C` are -11% and 1.75.
For `Cc1ccc(-c2noc(CCN(CC(C)C)C(=O)c3ccccc3)n2)cc1`, in that order: -15% and 2.51.
On the same counts, the results for `COc1ccc(CC(=N)Nn2cnnc2)cc1` are -20% and 2.52.
`NCCCOc1cc(Cl)ccc1C(=O)N1CCc2nc[nH]c(=O)c2C1`: the “% Inhibition” value turned out to be 9% and the Z score was -1.16.
Take `Cc1ccc(-c2nc3[nH]c(CN4CCCCCC4)cc(=O)n3n2)cc1C`: the “% Inhibition” value is recorded as -8% and the Z score is 1.27.
On the same counts, the results for `O=C1CC(c2cccc(NC(=O)CCc3ccccn3)c2)CC(=O)N1` are 33% and -0.41.
On the same counts, the results for `CN=C(NCc1nc(C)c(C)o1)NC1CC(C)N(c2ccccc2)C1` (stereo not drawn) are -2% and 0.32.
As for `O=S(=O)(CC1CCCC1)NCCN1CCC[C@H](CO)C1`, the “% Inhibition” value is reported as -11% and the Z score is 1.05.
On to `Cc1cc(C(=O)N2CCCN(C3CC3)CC2)c(C)n1C(C)C`, for which the “% Inhibition” value was -15% and the Z score is listed as 2.87.
On the same counts, the results for `CC1CCC(C(=O)N2CCOC3CCCCC32)O1` (stereo not drawn) are -2% and 0.29.
On the same counts, the results for `C[C@H]1CN(c2ccc3cn[nH]c3c2)C(=O)CN1C(=O)Cc1cnccn1` are -1% and 0.22.
For `CCOc1ccccc1CN1CCC(Cc2ccc(C(=O)N3CCOCC3)cc2)CC1`, in that order: 3% and -0.45.
On to `NC(=O)N1CCC[C@H]1C(=O)NCCCc1ccccc1Cl`, for which the “% Inhibition” value worked out at 4% and the Z score is reported as -0.77.
As to `Cc1cnccc1NC(=O)NCC1(O)CCCC1`, the “% Inhibition” value came out at 10% and the Z score is on record as -1.48.
On the same counts, the results for `CCOc1cc(C(c2c(C)n(C)n(-c3ccccc3)c2=O)c2c(C)n(C)n(-c3ccccc3)c2=O)ccc1OCc1ccccc1` are 75% and -5.78.
For `COc1cc(-c2nc(=O)c(CCC(=O)N3CCN(C)CC3)n[nH]2)ccc1OCc1ccccc1F`, in that order: -5% and 1.04.
For `Cc1cc(F)ccc1OC1(C(=O)O)CCN(Cc2ccoc2)CC1`, in that order: -9% and 1.35.
Regarding `O=C(Nc1cccc(S(=O)(=O)N2CCOCC2)c1)c1ccco1`, the “% Inhibition” value is -17% and the Z score is given as 2.93.
On the same counts, the results for `COc1ccc(OC)c(NC(=O)c2cccc(N3C(=O)C4C5CCC(C5)C4C3=O)c2)c1` (stereo not drawn) are -2% and 0.35.
For `Cc1ncc(C(=O)N(C)C[C@@H]2C[C@H](F)CN2c2ccncn2)c(C)n1`, in that order: -1% and 0.15.
For `CC(C)CCN1CC[C@H](c2nc3ccccc3[nH]2)C1`, in that order: 33% and -3.69.
Consider `COc1cccc(-c2ccnc(-n3ncc(C(=O)NCCN4CCOCC4)c3C3CC3)n2)c1`, for which the “% Inhibition” value is on record as -13% and the Z score amounted to 1.69.

These data come from ChEMBL document CHEMBL4888484, “Replenishing the malaria drug discovery pipeline: Screening and hit evaluation of the MMV Hit Generation Library 1 (HGL1) against asexual blood stage Plasmodium falciparum ,using a nano luciferase reporter read-out” (2022).
